Experimental data taken from PubChem BioAssay AID2676 (National Center for Advancing Translational Sciences (NCATS), 2010).
The whole screen tested about 370,000 compounds, of which about 1,100 (0.3%) were called active. Another 1% or so got no clear call; they are omitted. Calls follow the shape of the dose curve; as a rule, active = well fitted activation curve with a large enough effect; inconclusive = small, poorly fitted or top-dose-only effect; inactive = flat fitted curve, though single readings scatter. The entries are a selection whose mix differs from that of the whole data set.

target: Relaxin receptor 1 (Homo sapiens) (UniProt Q9HBX9); test: qHTS Assay for Agonists of the Relaxin Receptor RXFP1; details: HEK293T-RXFP1 cAMP TR-FRET, 30 min; series mostly up to 57.5 µM; activation: at the top concentration; also: nearly all actives have a fitted effect of over 60% in size
Description: NIH Chemical Genomics Center [NCGC] NIH Molecular Libraries Probe Production Centers Network [MLPCN] MLPCN Grant: R03 MH085705-01A1 Assay Submitter (PI): Alexander Agoulnik NCGC Assay Overview: The relaxin hormone is involved in the variety of biological functions in normal tissues and diseases. The role of relaxin is well-established in female reproduction and parturition, mammary gland and endometrial development, maintenance of myometrial quiescence during pregnancy. Relaxin signaling through its G protein-coupled receptor (GPCR) RXFP1 results in ECM remodeling through regulation of collagen deposition, cell invasiveness, proliferation and overall tissue homeostasis. […] Recombinant human relaxin (rhRlx) is currently being tested in clinical trials as a protective agent in congestive heart failure, in treating severe preeclampsia, and as an anti-fibrotic agent in systemic sclerosis. Upon relaxin binding RXFP1 activation leads to the activation of adenylate cyclase (AC) via Gs. cAMP will activate PKA, which phosphorylates many signaling proteins. Thus, detection of cAMP increase is an easy and reliable indication of relaxin receptor activation. To screen for agonists of the relaxin receptor, a HEK293T cell line stably transfected with RXFP1 was used. RXFP1 activation was assayed by changes in cAMP levels as detected with a time-resolved fluorescence energy transfer (TR-FRET) cAMP detection kit.
NCGC Assay Protocol Summary: This is a cell-based assay for cAMP second messenger response to screen for agonists of the RXFP1 receptor. The assay was conducted in the presence of a PDE4 inhibitor (Ro 20174). The cells were lysed and the cAMP levels were measured with a TR-FRET cAMP kit. Presence of cAMP in the cell lysate disrupts binding between the cryptate-labeled anti-cAMP and d2-labeled cAMP pair, leading to a decrease in the TR-FRET signal. Data were normalized to the controls for basal activity (buffer only) and 100% activity (29 nM porcine relaxin). The EC50 values were determined from concentration-response data modeled with the standard Hill equation 1536-well assay protocol for the HEK293 RXFP1 cAMP assay: (1) Add 3 ul HEK293 RXFP1 cell culture. 2000 cells/well in DMEM/F12, 10% FBS, 1x Pen/Strep (dispensed offline with MultiDrop Combi). (2) Incubate 16-24 hr at 37C, 5% CO2. (3) Add 1 ul 400uM Ro20174 in DPBS, 0.05% BSA, 0.005% Tween 20. (3) Add 23 nl compounds in DMSO solution. Final concentration was 0.5 - 58 uM. (4) Incubate 30 min at 37C, 5% CO2. (5) Add 1 ul cAMP-d2 in lysis buffer (HTRF cAMP HiRange kit, CisBio). (6) Add 1 ul anti-cAMP antibody-cryptate in lysis buffer (HTRF cAMP HiRange kit, CisBio). (7) Incubate 30 min at room temperature. (6) Detect the assay plate in a ViewLux plate reader (PerkinElmer) with Ex=320 nm, Em1=615 nm and Em2=665 nm. Keywords: relaxin, RXFP1, RXFP2, G-protein coupled receptor, cAMP, agonist, high throughput screening, MLSMR, MLSCN, NIH Roadmap, qHTS and NCGC
% is scaled to controls: 0 for no effect and ±100 for the full control effect; potency is read from the fitted curve at half-maximal effect.

Chain of UniProt Q9HBX9 (Q9HBX9 whole entry, looked up): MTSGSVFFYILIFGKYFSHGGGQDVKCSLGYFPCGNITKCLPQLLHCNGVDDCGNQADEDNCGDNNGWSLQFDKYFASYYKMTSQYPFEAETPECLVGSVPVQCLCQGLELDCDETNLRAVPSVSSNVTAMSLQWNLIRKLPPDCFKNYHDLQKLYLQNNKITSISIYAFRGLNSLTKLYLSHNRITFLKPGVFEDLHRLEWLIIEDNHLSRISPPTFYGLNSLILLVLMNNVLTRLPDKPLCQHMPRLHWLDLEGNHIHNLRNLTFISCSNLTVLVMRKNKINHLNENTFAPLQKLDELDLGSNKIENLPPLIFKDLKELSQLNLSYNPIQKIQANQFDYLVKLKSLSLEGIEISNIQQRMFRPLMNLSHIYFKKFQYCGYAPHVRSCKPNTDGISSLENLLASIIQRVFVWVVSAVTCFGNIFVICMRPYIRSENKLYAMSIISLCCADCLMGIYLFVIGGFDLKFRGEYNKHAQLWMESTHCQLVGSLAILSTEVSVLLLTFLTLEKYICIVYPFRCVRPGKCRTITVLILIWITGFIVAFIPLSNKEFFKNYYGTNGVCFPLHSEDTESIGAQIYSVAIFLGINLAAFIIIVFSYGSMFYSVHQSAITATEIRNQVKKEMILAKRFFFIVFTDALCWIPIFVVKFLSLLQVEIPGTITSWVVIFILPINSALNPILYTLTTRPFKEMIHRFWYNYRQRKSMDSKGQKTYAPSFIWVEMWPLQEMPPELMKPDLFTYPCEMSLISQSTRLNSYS

SMILES | activation | Potency
Cc1cccc(C(=O)N/N=C2\CS(=O)(=O)N(C)c3ccsc32)c1 | inactive: -34.2% | –
Cn1c2c(c(=O)n3ncnc13)CCCC2 | – | active: 22.4 µM
CCOc1ccc(S(=O)(=O)c2c[nH]c3ccccc3c2=O)cc1 | inactive: 2.51% | –
CCOc1ccccc1OCC(=O)NNC(=O)Cn1cnc2c1c(=O)n(C)c(=O)n2C | – | active: 22.4 µM
CC(=O)CSc1nc(-c2cccs2)c(C#N)c(=O)[nH]1 | – | active: 14.1 µM
COc1ccc(N2CC(O)=C(c3nc(-c4ccccc4)cs3)C2=N)cc1 | inactive: -39.5% | –
CCOC(=O)C1=C(c2ccccc2)O/C(=C(\C(=O)OC)C(F)(F)F)S1 | inactive: -0.116% | –
COc1ccc(OC)c(CNC(=O)CCn2c(=O)c3cccn3c3ccc(F)cc32)c1 | inactive: -8.03% | –
COc1ccc2c3c([nH]c2c1)C1CC2C(CC(O)C(OC)C2CO)CN1CC3 (centres undefined) | inactive: -38.4% | –
CCCCNc1ccc(C(CC(N)=O)NC(=O)c2ccccc2)cc1[N+](=O)[O-] (centres undefined) | inactive: -33.8% | –
CN(CCO)S(=O)(=O)c1ccc2c(c1)C(=NN)c1cc(S(=O)(=O)N(C)CCO)ccc1-2 | inactive: -30% | –
O=S(=O)(c1ccc2nc(N3CCN(c4ccccc4F)CC3)ccc2c1)N1CCCCC1 | inactive: 21.7% | –
COc1ccccc1N1CCN(C(=O)CSc2ncnc3c2cnn3-c2ccc(C)c(C)c2)CC1 | inactive: -41.5% | –
O=C(C1=C(O)C(=O)N(CCc2ccccc2)C1c1ccncc1)c1cc2ccccc2o1 (centres undefined) | – | active: 14.1 µM
COCCCn1c(=O)c2sccc2n2c(CCCC(=O)NCc3ccc(F)cc3)nnc12 | inactive: 24.4% | –
CCCCN(CC)C(=O)c1cc2c(=O)n3cccc(C)c3nc2s1 | inactive: 29.9% | –
Cc1c(C(=O)NNc2cc(=O)n(C)c(=O)n2C)cccc1[N+](=O)[O-] | – | active: 14.1 µM
Nc1ccc(-c2ccc(N)c(C(=O)O)c2)cc1C(=O)O | inactive: -56.1% | –
COc1ccc2[nH]c3c(=S)nc[nH]c3c2c1 | – | active: 15.8 µM
NCc1cc2c3c(c1)CCCN3CCC2 | inactive: -56.1% | –
O=C(NN1C(=O)c2ccccc2NC1c1ccc([N+](=O)[O-])o1)c1ccc([N+](=O)[O-])cc1 (centres undefined) | – | active: 2.82 µM
Cc1ccc(CSc2ccc(-c3cccs3)nn2)cc1 | inactive: 13.4% | –
Cc1ccc(NC(=O)Cn2c(=O)n(-c3ccccc3)c(=O)c3ccc(C(=O)NCc4ccc5c(c4)OCO5)cc32)cc1 | – | active: 22.4 µM
Cc1ccc(NC(=O)c2cc(-c3ccc4c(c3)OCO4)on2)cc1 | inactive: 0.687% | –
Cc1cc(C)c2oc(C(=O)NCCc3ccc(S(N)(=O)=O)cc3)cc(=O)c2c1 | inactive: 13.7% | –

SMILES | activation | Potency
CC1=NN(c2ccccc2)C(=O)C1/C=C1\NC(=S)NC1=O (centres undefined) | inactive: -1.68% | –
CSc1ncc(Cl)c(C(=O)Nc2ccc(S(=O)(=O)Nc3nccc(C)n3)cc2)n1 | inactive: 0.187% | –
CCOc1ccc(Cn2nnc(C(=O)NCc3ccc(OC)cc3)c2N)cc1 | – | active: 31.6 µM
Cc1ccc(-c2c(C(=O)Nc3ccccc3C)c(C)[nH]c(=S)c2C#N)o1 | – | active: 28.2 µM
O=C(Nc1ccc(F)cc1F)c1cc(-c2ccc3c(c2)OCO3)on1 | inactive: 9.37% | –
Cc1ccc(-c2nc(SCC(=O)Nc3cc(C)on3)c3c(=O)n(C)c(=O)n(C)c3n2)cc1 | inactive: 13.1% | –
CC(C)CN(CC(C)C)S(=O)(=O)c1ccc(C(=O)Nc2sc3c(c2C(N)=O)CCN(C(C)C)C3)cc1 | inactive: -56.2% | –
CCc1ccc(NC(=O)c2c(C(=O)Nc3ccccc3)sc3nc(C)cc(=O)n23)cc1 | inactive: 14% | –
COc1ccccc1NS(=O)(=O)c1cccc(NC(=O)c2[nH]c(C)c(C(C)=O)c2C)c1 | inactive: -30.5% | –
CCOC(=O)c1c(NC(=O)c2cc(CC(C)C)on2)sc(C(C)=O)c1C | inactive: 5.43% | –
CNCC(O)c1ccc(O)c(O)c1 (centres undefined) | inactive: 17.8% | –
O=C(Nc1nc2cc3c(cc2s1)OCO3)c1ccc(N2C(=O)CCC2=O)cc1 | inactive: -111% | –
CCCN1CCc2nc(SCC(=O)Nc3ccc(C)c(Cl)c3)[nH]c(=O)c2C1 | inactive: 12.9% | –
COc1ccc(CN2C(=O)c3cccnc3C2=O)cc1S(=O)(=O)NCc1ccc(C)o1 | – | active: 15.8 µM
CC1=NN(c2ccccc2)C(=O)C1/C=C1/NC(=S)NC1=O (centres undefined) | inactive: -75.3% | –
COC(=O)c1c(NC(=O)c2ccc(S(=O)(=O)N3CCCCC3)cc2)sc2c1CCN(C)C2 | inactive: -43.9% | –
CCOC(=O)CC(NC(=O)CCc1c(C)nc2ncnn2c1C)c1ccc(OC(C)C)cc1 (centres undefined) | inactive: 29.8% | –
O=C(N=c1ccn(-c2nc3ccccc3nc2NS(=O)(=O)c2ccc(Cl)cc2)cc1)c1cccs1 | inactive: -31.1% | –
O=C(Nc1nnc(S(=O)(=O)N2CCOCC2)s1)c1ccccc1Cl | inactive: -0.494% | –
O=C1c2cccnc2C(=O)N1Cc1ccc(F)cc1S(=O)(=O)NCc1ccco1 | – | active: 25.1 µM
CCN1/C(=C/c2ccc3cc(C)ccc3[n+]2C)Sc2ccc3sccc3c21 | inactive: -37.9% | –
CCOC(=O)c1cc2c(=O)n3ccccc3nc2n(Cc2ccco2)c1=NC(=O)c1ccccc1OC | inactive: 21.4% | –
COc1cccc(/C=N/NC(=O)Cn2cnc3c2c(=O)n(C)c(=O)n3C)c1OC | – | active: 17.8 µM
CC(=O)Nc1ccc(Br)c2ccccc12 | – | active: 28.2 µM
